These are yes or no findings as the source states them, for the method shown. Binding seen in cells or lysates may run through a third protein. Some results given as binding are weak or reduced against the parent protein; the word gives no strength. One block for each substance: values may come before it.
Legend:
[1] = target: twin-strep-tagged Jade1L (large Jade1 isoform), expressed in Expi293F cells (UniProt Q6IE81); assay: pull-down; tagged Jade1L or Jade1S purified from transfected Expi293F cells by methods similar to Oct4 (nuclear extract, anti-FLAG M2 agarose, FLAG peptide elution); co-purifying bands seen by Coomassie and identified by immunoblot
[2] = target: Oct4 (Pou5f1), endogenous in mouse embryonic stem cells (mouse (endogenous in mouse ESCs)) (UniProt P20263); assay: co-IP; WT mouse ESC extracts; antibodies against Oct4 and Jade1
[3] = target: Oct4 (Pou5f1), endogenous in mouse embryonic stem cells (mouse (endogenous in mouse ESCs)) (UniProt P20263); assay: condition: only Oct4 captured on WT octamer DNA beads instead of MORE DNA; pull-down; WT octamer DNA on FG beads, Oct1 deficient mouse ESC extract; eluate immunoblotted with anti-Oct4 and anti-Jade1
[4] = target: Oct4 (Pou5f1), endogenous in mouse embryonic stem cells (mouse (endogenous in mouse ESCs)) (UniProt P20263); assay: co-IP; Oct1 deficient mouse ESC extracts in RIPA buffer; IP with anti-Oct4 or anti-Jade1 (isotype IgG as control), Protein G Dynabeads, 4 C; immunoblot of the other protein
[5] = target: Oct4 (Pou5f1), endogenous in mouse embryonic stem cells (mouse (endogenous in mouse ESCs)) (UniProt P20263); assay: pull-down; WT MORE DNA on FG beads, Oct1 deficient mouse ESC extract; eluate immunoblotted with anti-Oct4 and anti-Jade1
[6] = target: N-terminally truncated Oct4 lacking the first 130 amino acids, FLAG- and twin-strep-tagged (UniProt P20263); assay: pull-down; Expi293F cells cotransfected with tagged Oct4 constructs and twin-strep Jade1L; lysates with 20 ug/ml MG-132 incubated with MORE DNA-coupled FG beads, washed three times with 100 mM KCl buffer; blot with HRP anti-StrepII
[7] = target: FLAG- and twin-strep-tagged Oct4 (full-length), expressed in Expi293F cells (UniProt P20263); assay: as above
[8] = target: Jade1S (smaller Jade1 isoform), purified from Expi293F cells (UniProt Q6IE81); assay: pull-down; tagged Jade1L or Jade1S purified from transfected Expi293F cells by methods similar to Oct4 (nuclear extract, anti-FLAG M2 agarose, FLAG peptide elution); co-purifying bands seen by Coomassie and identified by immunoblot

Sequences of proteins named here, by UniProt entry; tags and fusion partners are left off.
UniProt Q6ZPI0: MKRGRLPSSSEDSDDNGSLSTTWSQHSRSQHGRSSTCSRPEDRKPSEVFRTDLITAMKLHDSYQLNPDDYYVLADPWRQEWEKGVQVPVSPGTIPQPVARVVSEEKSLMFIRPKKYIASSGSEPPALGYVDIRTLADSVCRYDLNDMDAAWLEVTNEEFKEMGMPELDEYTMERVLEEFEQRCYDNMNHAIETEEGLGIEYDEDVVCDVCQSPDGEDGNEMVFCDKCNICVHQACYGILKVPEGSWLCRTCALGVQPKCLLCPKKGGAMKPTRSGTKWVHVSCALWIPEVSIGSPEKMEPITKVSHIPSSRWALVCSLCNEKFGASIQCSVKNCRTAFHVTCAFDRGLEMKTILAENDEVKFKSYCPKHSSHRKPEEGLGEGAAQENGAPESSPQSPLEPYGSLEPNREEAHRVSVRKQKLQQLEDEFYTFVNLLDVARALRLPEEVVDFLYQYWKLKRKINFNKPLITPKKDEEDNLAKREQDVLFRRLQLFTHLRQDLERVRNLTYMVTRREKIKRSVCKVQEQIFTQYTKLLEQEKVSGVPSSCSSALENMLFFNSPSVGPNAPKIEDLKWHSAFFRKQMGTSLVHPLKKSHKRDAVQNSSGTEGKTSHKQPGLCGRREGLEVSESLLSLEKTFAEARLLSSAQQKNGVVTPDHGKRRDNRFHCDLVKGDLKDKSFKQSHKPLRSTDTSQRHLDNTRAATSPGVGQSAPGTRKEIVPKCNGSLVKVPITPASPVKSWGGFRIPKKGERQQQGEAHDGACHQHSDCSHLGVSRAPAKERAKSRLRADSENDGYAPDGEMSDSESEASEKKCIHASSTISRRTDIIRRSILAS

- binding [1]: binds
Substance: ING4 co-purified with Jade1 from Expi293F cells (from UniProt Q9UNL4 1-249)

- binding [2]: binds
- binding [3]: no binding
- binding [4]: binds
- binding [5]: binds
Substance: Jade1, endogenous in mouse embryonic stem cells (from UniProt Q6ZPI0 1-834)

- binding [6]: binds
- binding [7]: binds
Substance: twin-strep-tagged Jade1L (large Jade1 isoform), expressed in Expi293F cells (from UniProt Q6IE81-1 1-842)

- binding [1]: binds
- binding [8]: binds
Substance: HBO1 co-purified with Jade1 from Expi293F cells (from UniProt O95251 1-611) (enzyme)

From article PMC12664036
